Reference: the supplement of paper PMC11417369
Some of the results follow.

Each sequence was assayed on PF3D7_0420300 AP2 domain 1 (GST-tagged) (assay: gcPBM binding intensity (ln(normalized median fluorescence intensity)); higher = stronger DNA binding).
In short: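 Binding intensity is the highest Masliner-normalised natural-log median intensity over replicate spots in either probe orientation. To obtain it, GST-tagged P. falciparum DNA-binding domains made in E. coli were incubated for 1 h on an Agilent 4 × 180k array of primer-extended double-stranded 36-bp intergenic genomic probes plus negative controls. Detection used Alexa488 anti-GST antibody with scanning at 488 nm.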

Sequence	gcPBM binding intensity (ln)
TTTGAAATATTTATTTGTACATATACACACTTAAAT [XGTACX_site8321]	9.29
ATATTATTTTGTCAGGGTACATTCCATAAGTTTTTT [XGTACX_site6855]	9.48
TTCTGGTGTAAATGCACACAGAAGAAGAAAAAAAAA [CACACA_site3685]	9.03
TAATTTAATTTTCCAAGAAAAAAAAAAGAAAAAAGA [CACACA_negctrl_site1703]	9.02
TAACATCCTAATGTCACACATGTTATAGGTTTAAAT [CACACA_site5649]	9.16
AATAGATTTTTATGCGTGCACACATTTAACAAAAAA	9.18
GTGCTAGTATTTAATACACACAATTGAAGTTCCTGA [CACACA_site1452]	9.38
AAAAATATAAAGAAATGTACTTATAAAAATCCCTAC [XGTACX_site3824]	9.45
TTCTGTTCAAAATATGAACACACACCGATATATATA [CACACA_site8637]	9.47
TACACCAGTTGTGGGAGTACACAAAAAAAGGGAAAA [XGTACX_site6047]	9.39
CTTTATCTTTTTCATTGTACTTTATTTTAAAATTAA [XGTACX_site4858]	9.27
TGCAGTCTGGAGAAAAGTACACAGTATCTGGTAGCT [XGTACX_site2013]	9.03
AATATCATAAAATAAAGTACAAATATATATTGAAAA [XGTACX_site8813]	9.42
TTTTAGTGAAATGAGTGTACATTATATATTTTTTTT [XGTACX_site4892]	9.12
ATTCTATATATATAAACACACAAATATTTTTATATA [CACACA_site1677]	9.28
AAGACTAATCTAGGTAGTACTTATATATCTTTATTT [XGTACX_site4572]	9.26
ATATAAGGAAGGGATGCACACAAAAGGGTACATAAG [CACACA_site9328]	9.68
ATATTTTTGTTCAGGAGTACAGTTCAAGATGAAAAT [XGTACX_site4178]	9.18
TTTGGGATATTTACAGTGCAAAGATATTTTTATAAT	9.05
TTTTTTATATATGTGTGTGTGTGTGTGTCAAGTTTA [GTGCAC_negctrl_site460]	10.3
ATAACATAATAGCAACAATTTATTTCCTCTATAACA [CACACA_negctrl_site243]	9.23
ATATAATATTACAAATGTACTTTAAAAAATTAGGAG [XGTACX_site3897]	9.21

Sequence	gcPBM binding intensity (ln)
TTGTTTCAAGAAAAAATCGAAAAACATAGAAAAAAA [XGTACX_negctrl_site615]	9.1
TATATATCAAAAATATGTACACAGAAATATATATTA [XGTACX_site6997]	9.36
ACATATAAAATATATACACACATATAAATACATTAA [CACACA_site3867]	9.75
TTGCAATAATGTTGCACACTAAATAGTCATATATAA [CACACA_site263]	9.09
CATTTTTTATAATAATGTACATGTATTAAAAAAAAA [XGTACX_site6390]	8.89
TTTATAAGAATTACTAGTACATATAAGGAATTATAT [XGTACX_site3953]	9.06
TTATAAATTTAAAGTAGTACTATACTACTATTTTAT [XGTACX_site3038]	9.04
ATCCACAAAATAGGATGTACATATAAAATAAATAAA [XGTACX_site5362]	9
TATGGAATAATACGCGTACACACATATATATATTAA [CACACA_site132]	9.61
AAATTATTATGTATTTGTACACATAAGAATATAAAA [XGTACX_site6841]	9.1
TATAAATAATGTTAAACACACATACCGATATATAAT [CACACA_site5499]	9.63
AATGGGGAAGGTTCTACACACAACGCAAATGCCTTA [CACACA_site2758]	9.57
AGAGAAAGAAAGAAATGTACAAATACCTACACACAT [XGTACX_site3140]	9.84
TCAGTTAATGTATATGTACACACGGTGAGTATATAT [CACACA_site3346]	9.43
TTTTTTACAAATGATATCATTTCTTTAAATATTAAA [TGCATGCA_negctrl_site279]	8.83
CTATAAATGAATGTTTGTACTTAATAATAAAAGAAA [XGTACX_site3170]	9.06
TATTTTTTTCATAACAGTACAATAATATATATTTTT [XGTACX_site5739]	9.08
GCACACACAAAAAAAGCATGCATACTAGCTATTTTT [TGCATGCA_site18]	9.35
AATCAAAAAAAATGTTGTACGCCTAATTATAATTAA [XGTACX_site8906]	9.11
AAAAAACACCCATACACACACACACCGATATATATA [CACACA_site5808]	10.2
TATTCGTGCAATAATAGTACACTTATAAATTATTCA [XGTACX_site8993]	9.03
AATGAAATAAATAAGGGTACACATAAATATATATAT [XGTACX_site7006]	9.72
